Source: PubChem BioAssay AID485281 (National Center for Advancing Translational Sciences (NCATS), 2010)
In all, about 350,000 compounds went through this assay and about 260 (0.074%) were called active. This list was built around the results that the source calls inconclusive (neither active nor inactive); the mix of calls is not that of the screen. The call rests on the fitted dose curve; in most records, active means well fitted inhibition curve with a large enough effect; inconclusive means small, poorly fitted or top-dose-only effect; inactive means no such curve, though single readings can be large or run the other way. Potencies of inconclusive entries are doubtful fits and often do not repeat.

The compounds below were run against Ferritin light chain (Equus caballus) (UniProt P02791) (assay: qHTS Assay for Identification of Novel General Anesthetics). Settings: apoferritin/1-aminoanthracene competitive binding, fluorescence; activity change, negative = displacement: at 77.5 µM (top of the series).
How it was run: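 Horse-spleen apoferritin (10 uM) in 50% saturated 1-aminoanthracene in PBS was incubated 10 min at room temperature with compound. Fluorescence (ex 380, em 535 nm) was normalized to free and bound 1-AMA, with concentration-response fitted by a four-parameter Hill equation.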
Further: nearly all actives have a fitted effect of over 20% in size.
On the % scale 0 is the no-effect control and ±100 the full control effect; potency means the concentration at half of the fitted maximal effect; tags describe the fitted curve by direction and shape.

UniProt P02791, sequence (P02791 whole entry, looked up): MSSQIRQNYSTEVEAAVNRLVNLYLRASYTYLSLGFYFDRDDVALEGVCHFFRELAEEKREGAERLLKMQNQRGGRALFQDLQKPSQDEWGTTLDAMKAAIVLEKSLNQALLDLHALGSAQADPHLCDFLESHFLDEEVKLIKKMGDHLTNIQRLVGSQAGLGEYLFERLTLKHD

Q: How did the Potency turn out when `CCn1c(SCC(=O)c2ccccc2)nnc1-c1cccs1` was run?
A: The Potency was inconclusive: 35.5 µM [inhibitor, partial curve].

Q: How did the Potency turn out when `CCOc1ccccc1/C=N/n1c(COc2ccccc2)n[nH]c1=S` was run?
A: The Potency was inconclusive: 31.6 µM [inhibitor, partial curve].

Q: Which Potency does the source give for `Fc1ccc(COc2cccc3cccnc23)cc1` here?
A: Its Potency is inconclusive: 35.5 µM [inhibitor, single point].

Q: With `CN(C)c1ccc(N=Nc2ccccc2C(=O)OCC(=O)N(C)c2ccccc2)cc1` as the compound, how does the Potency read?
A: The Potency was inconclusive: 28.2 µM [inhibitor, partial curve].

Q: For `COc1ccccc1NC(=S)NC(=O)C(C)(C)C`, which Potency is on record?
A: Its Potency is inconclusive: 44.7 µM [inhibitor, partial curve].

Q: For `Cc1cc2oc(C(=O)NCc3ccncc3)c(C)c2cc1C`, which Potency is on record?
A: Its Potency is inconclusive: 12.6 µM [inhibitor, partial curve].

Q: With `O=C(CSc1nc(-c2ccccc2)c(-c2ccccc2)[nH]1)NCc1ccco1` as the compound, how does the Potency read?
A: The Potency was inconclusive: 11.2 µM [inhibitor, partial curve].

Q: With `CC1Cc2ccccc2N1C(=O)CSc1nnnn1C` (stereo not drawn) as the compound, how does the Potency read?
A: Its Potency is inconclusive: 15.8 µM [inhibitor, partial curve].

Q: Which Potency does the source give for `Cc1ccc(NC(=O)CN(C)C(=O)CSc2nc3ccccc3o2)cc1` here?
A: The Potency was inconclusive: 35.5 µM [inhibitor, single point].

Q: Which Potency does the source give for `Cc1[nH]c2ccccc2c1/C=N/NC(=O)CNC(=O)Cc1ccccc1` here?
A: Its Potency is inconclusive: 14.1 µM [inhibitor, partial curve].

Q: For `O=C1c2ccccc2CCC12N=NCC2c1ccc(Br)cc1` (stereo not drawn), which Potency is on record?
A: Its Potency is inconclusive: 20 µM [inhibitor, partial curve].

Q: `COc1ccc(N2C(=O)CC(SCC(=O)O)C2=O)cc1` (stereo not drawn) was tested. Which “activity change, negative = displacement” value did it give?
A: Its value is inactive: 5.41%.

Q: Which Potency does the source give for `CCc1cc(C=NC2CCCCC2)c(O)s1` here?
A: The Potency was inconclusive: 31.6 µM [inhibitor, partial curve].

Q: Which Potency does the source give for `O=C(CNC(=O)c1ccccn1)N/N=C/c1ccccc1` here?
A: Its Potency is inconclusive: 20 µM [inhibitor, partial curve].

Q: Which Potency does the source give for `Cc1cccc(OCc2nnc(SCC(=O)OC3CCCCC3)o2)c1` here?
A: The Potency was inconclusive: 3.55 µM [inhibitor, full curve].

Q: Which Potency does the source give for `Cc1noc(NS(=O)(=O)c2ccc(N/C=C\C(=O)c3cccc4ccccc34)cc2)c1C` here?
A: The Potency was inconclusive: 28.2 µM [inhibitor, partial curve].

Q: With `O=C1C2C3CCCC3=C3CCCC3C2C(=O)N1c1ccccc1` (stereo not drawn) as the compound, how does the Potency read?
A: Its Potency is inconclusive: 14.1 µM [inhibitor, partial curve, poor fit].

Q: How did the “activity change, negative = displacement” value turn out when `COc1ccc(NC(=O)Nc2ccccc2SC)cc1` was run?
A: The value was inactive: -13.6%.

Q: For `CCCCCCN=CC1=C(O)C(C(=O)OC)C(C)(C)CC1=O` (stereo not drawn), which Potency is on record?
A: Its Potency is inconclusive: 12.6 µM [inhibitor, partial curve].

Q: With `O=[N+]([O-])c1ccccc1S(=O)(=O)N1CCCC(C(F)(F)F)C1` (stereo not drawn) as the compound, how does the Potency read?
A: The Potency was inconclusive: 14.1 µM [inhibitor, partial curve].

Q: With `NCCc1nnc(SCc2ccccc2)o1` as the compound, how does the Potency read?
A: The Potency was inconclusive: 25.1 µM [inhibitor, partial curve].

Q: How did the Potency turn out when `CC(C)CCNC(=O)NC(=O)COc1c(F)c(F)cc(F)c1F` was run?
A: Its Potency is inconclusive: 20 µM [inhibitor, partial curve].

Q: `CN(Cc1cccs1)C(=O)CCCc1c[nH]c2ccccc12` was tested. Which Potency did it give?
A: Its Potency is inconclusive: 31.6 µM [inhibitor, single point].

Q: `O=c1[nH]c(SCc2nc3ccccc3c(=O)n2-c2ccccc2C(F)(F)F)nc2ccccc12` was tested. Which Potency did it give?
A: The Potency was inconclusive: 17.8 µM [inhibitor, partial curve].

Q: With `Cc1ccc(-c2nc3ncccc3o2)cc1NC(=O)COc1ccc(C(C)C)cc1` as the compound, how does the Potency read?
A: The Potency was inconclusive: 12.6 µM [inhibitor, partial curve].

Q: Which “activity change, negative = displacement” value does the source give for `COC(=O)c1sc(-c2ccc(Cl)cc2)cc1NC(=O)/C=C/C(=O)O` here?
A: The value was inactive: 0.956%.

Q: Which “activity change, negative = displacement” value does the source give for `COc1ccc(OC)c(CCNC(=O)c2cc3c(-c4ccccc4F)nn(C)c3s2)c1` here?
A: The value was inactive: 36.9%.

Q: Which “activity change, negative = displacement” value does the source give for `O=C(CCc1ccccc1)NCCC1=CCCCC1` here?
A: Its value is inactive: -12.7%.

Q: `Cc1cccc(C(=O)c2cccc(C)c2)c1` was tested. Which Potency did it give?
A: The Potency was inconclusive: 35.5 µM [inhibitor, partial curve].

Q: How did the Potency turn out when `COc1cc(C(=S)N2CCOCC2)ccc1OC(=O)Cc1ccc(F)cc1` was run?
A: The Potency was inconclusive: 28.2 µM [inhibitor, partial curve].

Q: `O=C1/C(=C\c2cc([N+](=O)[O-])ccc2O)SC(=S)N1Cc1ccc(Cl)cc1` was tested. Which “activity change, negative = displacement” value did it give?
A: Its value is inactive: -14.5%.

Q: How did the Potency turn out when `COc1ccc(C)cc1NS(=O)(=O)c1ccc2c(c1)[C@H]1C=CC[C@H]1[C@@H](c1cccc(Cl)c1)N2` was run?
A: The Potency was inconclusive: 25.1 µM [inhibitor, single point].

Q: How did the Potency turn out when `O=C(COC(=O)/C=C/c1ccc(S(=O)(=O)N2CCOCC2)cc1)NCc1ccccc1` was run?
A: The Potency was inconclusive: 25.1 µM [inhibitor, single point].

Q: Which Potency does the source give for `CCOC(=O)c1cc(-c2ccc(F)cc2)n(CCC(=O)NC2CCN(Cc3ccccc3)CC2)c1C` here?
A: The Potency was inconclusive: 28.2 µM [inhibitor, single point].

Q: How did the Potency turn out when `CCOc1ccc(NC(=O)COC(=O)C2(C)CC2(Cl)Cl)c([N+](=O)[O-])c1` (stereo not drawn) was run?
A: The Potency was inconclusive: 28.2 µM [inhibitor, partial curve].

Q: How did the “activity change, negative = displacement” value turn out when `CC(C)c1ccc(/C=N/NC(=O)c2c(Cl)cnn2C)cc1` was run?
A: Its value is inactive: -13.3%.

Q: `CN1C(C)(C)c2ccccc2OS1(=O)=O` was tested. Which Potency did it give?
A: The Potency was inconclusive: 39.8 µM [inhibitor, partial curve].

Q: Which Potency does the source give for `COc1ccc(CNC(=O)CCSCc2ccc(C)cc2)cc1` here?
A: The Potency was inconclusive: 20 µM [inhibitor, partial curve].

Q: `O=C(Nc1ccc2ccccc2c1)N1CCN(c2ncccc2C(F)(F)F)CC1` was tested. Which Potency did it give?
A: The Potency was inconclusive: 35.5 µM [inhibitor, partial curve].

Q: Which Potency does the source give for `COc1cccc(/C=C2/SC(=S)N(CCCC(=O)Nc3ccc(O)cc3)C2=O)c1` here?
A: The Potency was inconclusive: 28.2 µM [inhibitor, partial curve].

Q: How did the Potency turn out when `O=[N+]([O-])c1ccc(COc2cccnc2)cc1` was run?
A: The Potency was inconclusive: 22.4 µM [inhibitor, partial curve].

Q: How did the Potency turn out when `CCOc1cc(-c2nc(-c3ccccc3)c(-c3cc([N+](=O)[O-])ccc3C)[nH]2)ccc1O` was run?
A: The Potency was inconclusive: 12.6 µM [inhibitor, partial curve].

Q: How did the Potency turn out when `Cc1ccc(C2=N/C(=C\N(C)C)C(=O)O2)cc1` was run?
A: The Potency was inconclusive: 25.1 µM [inhibitor, partial curve].

Q: Which “activity change, negative = displacement” value does the source give for `Cc1ccc(S(=O)(=O)Nc2cc(C)c(O)c(Sc3n[nH]c(C)n3)c2)cc1` here?
A: Its value is inactive: -19.2%.

Q: With `Cc1nc(C#N)c(N/N=C/c2cccc(Cl)c2)o1` as the compound, how does the “activity change, negative = displacement” value read?
A: The value was inactive: -3.72%.

Q: How did the Potency turn out when `CC1=NN(c2ccc([N+](=O)[O-])cc2)C(c2ccccc2)C1` (stereo not drawn) was run?
A: The Potency was inconclusive: 25.1 µM [inhibitor, partial curve].

Q: With `COC(=O)c1ccc(Cn2c(=O)cc(C)c3c(C)nn(C)c32)cc1` as the compound, how does the “activity change, negative = displacement” value read?
A: The value was inactive: 6.25%.

Q: With `O=C(N/N=C/c1coc2ccccc2c1=O)c1ccccc1` as the compound, how does the Potency read?
A: Its Potency is inconclusive: 28.2 µM [inhibitor, partial curve].

Q: How did the Potency turn out when `CCOc1ccc(Sc2cc(C(=O)NCc3ccc(F)cc3)c3ccccc3n2)cc1` was run?
A: The Potency was inconclusive: 2.24 µM [inhibitor, full curve, poor fit].

Q: Which “activity change, negative = displacement” value does the source give for `O=C(O)c1ccc(-n2cccc2/C=N\NC(=O)c2cc3cc(Br)ccc3o2)cc1` here?
A: Its value is inactive: 5.11%.

Q: With `CSc1ccccc1NC(=O)C1C2CCC(C2)C1C(=O)O` (stereo not drawn) as the compound, how does the Potency read?
A: The Potency was inconclusive: 35.5 µM [inhibitor, single point].

Q: For `Cc1ccc(N/C(N)=N/c2nc(C)cc(C)n2)cc1`, which “activity change, negative = displacement” value is on record?
A: Its value is inactive: 3.3%.

Q: Which Potency does the source give for `O=C(c1ccc2c(c1)OCO2)C1CCCN(C(=O)c2cnn(Cc3ccccc3)c2)C1` (stereo not drawn) here?
A: Its Potency is inconclusive: 35.5 µM [inhibitor, partial curve].

Q: How did the Potency turn out when `Cn1c(=NC(=O)CN2C(=O)C3CC=CCC3C2=O)sc2ccccc21` (stereo not drawn) was run?
A: Its Potency is inconclusive: 31.6 µM [inhibitor, single point].

Q: Which Potency does the source give for `CCCc1ccc(Oc2c(-c3ccc(O)c(C)c3O)n[nH]c2C)cc1` here?
A: Its Potency is inconclusive: 35.5 µM [inhibitor, partial curve].

Q: With `CSc1ccc(CCNC(=O)C(C)n2nc(C)c3c(C)n(-c4ccccc4)nc3c2=O)cc1` (stereo not drawn) as the compound, how does the Potency read?
A: The Potency was inconclusive: 17.8 µM [inhibitor, single point].

Q: `O=C1CCCN1CCC12CC3CC(CC(C3)C1)C2` was tested. Which Potency did it give?
A: The Potency was inconclusive: 11.2 µM [inhibitor, partial curve].

Q: With `OCc1ccnc2c(O)cccc12` as the compound, how does the “activity change, negative = displacement” value read?
A: Its value is inactive: -15.5%.

Q: For `Cc1ccc(/C=c2\sc3nc(-c4ccco4)nn3c2=O)o1`, which Potency is on record?
A: The Potency was inconclusive: 35.5 µM [inhibitor, partial curve].

Q: With `O=C(COC(=O)c1ccc(Cl)s1)c1cc2ccccc2o1` as the compound, how does the Potency read?
A: Its Potency is inconclusive: 28.2 µM [inhibitor, partial curve].

Q: Which Potency does the source give for `O=C(CSc1nnnn1-c1ccccc1)c1ccco1` here?
A: Its Potency is inconclusive: 28.2 µM [inhibitor, partial curve].

Q: `C=CCn1cnc2scc(-c3ccc(C)c(C)c3)c2c1=O` was tested. Which Potency did it give?
A: The Potency was inconclusive: 14.1 µM [inhibitor, partial curve].

Q: With `Cc1cc(N2C(=O)C3CC=CC(C)C3C2=O)no1` (stereo not drawn) as the compound, how does the Potency read?
A: The Potency was inconclusive: 31.6 µM [inhibitor, partial curve].

Q: Which Potency does the source give for `O=C(Nc1cccc(O)c1)c1ccc2c(c1)C(=O)N(Cc1ccco1)C2=O` here?
A: Its Potency is inconclusive: 25.1 µM [inhibitor, partial curve].

Q: `COc1ccc(NC(=O)Cn2c(=O)nc(-c3ccccc3)c3ccccc32)cc1OC` was tested. Which “activity change, negative = displacement” value did it give?
A: Its value is inactive: 11.2%.

Q: With `CCc1ccc(OCC(=O)NNC(=S)NC(=O)C2CC2)c(Br)c1` as the compound, how does the Potency read?
A: The Potency was inconclusive: 31.6 µM [inhibitor, single point].

Q: For `CC1CCc2sc(C(=O)N/N=C/c3ccc(O)cc3)cc2C1` (stereo not drawn), which Potency is on record?
A: Its Potency is inconclusive: 50.1 µM [inhibitor, single point].

Q: Which Potency does the source give for `O=C(COc1ccc(Br)cc1)N1CCc2ccccc2C1` here?
A: Its Potency is inconclusive: 31.6 µM [inhibitor, partial curve].
